PubChem BioAssay AID2546 (National Center for Advancing Translational Sciences (NCATS), 2010)
Out of some 310,000 compounds screened, about 11,000 (3.5%) were called active. The inconclusive results got no clear call from the source; some entries with a clear call stand among them for comparison. The call rests on the fitted dose curve; in most records, active means well fitted inhibition curve with a large enough effect; inconclusive means small, poorly fitted or top-dose-only effect, or effect the other way; inactive means flat fitted curve, though single readings scatter. No potency is given beside an inconclusive call; the fits are too rough.

experiment: VP16 counterscreen qHTS for inhibitors of ROR gamma transcriptional activity; conditions: Drosophila S2 Gal4-VP16 UAS-luciferase, luminescence, 20 h; activity, negative = inhibition: at 53.6 µM (top of the series);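 further: Gal4-VP16 expression switched on by copper sulfate through the metallothionein promoter; nearly all actives have a fitted effect of over 50% in size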
On the % scale 0 is the no-effect control and ±100 the full control effect; potency means the concentration at half of the fitted maximal effect; tags describe the fitted curve by direction and shape.

SMILES | Potency | activity, negative = inhibition
Cc1nc(SC2CCOC2=O)c2c(C)c(C)sc2n1 (stereo not given) | active: 15.8 µM | –
CCC1(CC)Cc2ccccc2C(N)=C1C#N | inactive | –
CN(Cc1ccc(F)cc1)Cc1nc(-c2ccccc2)no1 | inactive | –
CO[C@@H]1COC(=O)C/C=C\[C@H](C)COC(=O)[C@H](C)NC(=O)C/C=C\[C@H]1C | – | inactive: 0.88% [at 10 µM]
Cc1cccc(NC(=O)/C=C/c2cccs2)n1 | active: 22.4 µM | –
O=c1[nH]c2c(s1)C(c1ccco1)C1C3CCC(C3)C1S2 (stereo not given) | inconclusive [activator, single point] | –
CCOCCOC(=O)c1ccc(NC(=O)C2COc3ccccc3O2)cc1 (stereo not given) | inactive | –
COc1ccc2nc(NC(=O)c3ccccc3O)sc2c1 | inconclusive [inhibitor, partial curve, poor fit] | –
COc1ccc(NC(=O)C2CCCN2S(=O)(=O)c2cccc3cccnc23)cc1OC (stereo not given) | inactive | –
COc1ccc(/C(C)=N/NC(=O)CNC(=O)CCc2ccccc2)c(OC)c1 | inconclusive [inhibitor, single point] | –
CN(CC#CC(O)(c1ccccc1)c1ccccc1)C(C)(C)C | inactive | –
CCN(CC(=O)Nc1ccc(Br)c(C)c1)CC(=O)NC(C)C | inactive | –
CC1=NN(C(=O)c2ccc(Cn3cc([N+](=O)[O-])cn3)cc2)C(O)(C(F)(F)F)C1 (stereo not given) | active: 12.6 µM | –
Cc1ccc(S(=O)(=O)CCc2nnc(NC(=O)c3ccccn3)s2)cc1 | active: 7.08 µM | –
Clc1ccc(Nc2nc(-c3cccs3)cs2)nc1 | inconclusive [inhibitor, single point] | –
CCCn1nc(NC(=O)C(C)(C)C)c2cc3cc(OC)ccc3nc21 | inactive | –
c1ccc(-c2nc(N3CCOCC3)cc(N3CCOCC3)n2)cc1 | inactive | –
Cc1c(Cl)cccc1NC(=S)N1CCCN(Cc2ccccc2F)C1 | inconclusive [inhibitor, single point] | –
CCCC(C)C(=O)Nc1nc(C)c(-c2csc(Nc3cc(Cl)ccc3C)n2)s1 (stereo not given) | inconclusive [inhibitor, single point] | –
CCOCCCNC(=O)C1CCC(CNS(=O)(=O)c2cccc3nsnc23)CC1 (stereo not given) | inconclusive [activator, single point] | –
Cc1ccnc(NC(=O)c2ccc(Cl)c([N+](=O)[O-])c2)c1 | inconclusive [inhibitor, single point] | –
C=CCN1C(=O)[C@]2(c3ccccc31)C1CCCC=C1C(C#N)=C(N)C2(C#N)C#N (stereo not given in full) | inactive | –
O=C(CCl)N1CCCC1c1ccc2c(c1)OCCO2 (stereo not given) | inconclusive [inhibitor, partial curve] | –
N#CC(C#N)=C(Nc1ccc(F)cc1)SCc1cccc(F)c1 | active: 14.1 µM | –
CCC(C)(C)NC(=O)C(c1ccccc1Cl)N(C(=O)CCC(=O)Nc1cc(C)on1)C1CC1 (stereo not given) | inactive | –

SMILES | Potency | activity, negative = inhibition
Cn1nc(C(C)(C)C)cc1C(=O)NNC(=O)c1ccc(C(F)(F)F)cc1 | inconclusive [inhibitor, single point] | –
COc1ccc2cc(-c3ccccc3)ncc2c1 | inconclusive [inhibitor, single point] | –
Cc1ccc(/C=N/NC(=O)c2nnn(-c3nonc3N)c2CSc2ccccc2)o1 | active: 11.2 µM | –
Cc1ccc(C)c(-n2c(-c3csc(C)c3C)n[nH]c2=S)c1 | active: 5.01 µM | –
c1ccc(-c2csc(N3CCCCCC3)n2)cc1 | inconclusive [activator, full curve, poor fit] | –
N#C/C(=C/c1ccc(F)cc1)S(=O)(=O)c1ccccc1 | inconclusive [inhibitor, partial curve, poor fit] | –
O=C(NC(=S)Nc1ccc(Cc2ccncc2)cc1)c1ccccc1Cl | inconclusive [inhibitor, single point] | –
CC(=O)Nc1ccc2nc(C)n(Cc3ccc(Cl)cc3)c(=O)c2c1 | inactive | –
COc1cc(C2CC(=O)Oc3ccc(C(C)(C)C)cc32)cc(OC)c1OC (stereo not given) | inconclusive [inhibitor, single point] | –
Cc1cc(Cl)ccc1Oc1nccc(N(C)C)c1C#N | inconclusive [inhibitor, single point] | –
Fc1ccc(-n2c(-c3ccco3)n[nH]c2=S)cc1 | inconclusive [inhibitor, single point] | –
Cc1ccc(NC(=S)N(Cc2ccccc2)C(C)C)cc1 | inconclusive [inhibitor, partial curve, poor fit] | –
O=C1C=C(c2ccc(Cl)cc2)OC2(CCCC2)O1 | inconclusive [inhibitor, single point] | –
CCOc1ccc(-c2nc(N)ncc2Oc2ccccc2Br)c(O)c1 | inconclusive [inhibitor, single point] | –
N#Cc1ccc(N=c2ssnc2Cl)cc1 | inconclusive [inhibitor, single point] | –
O=C(Nc1ccccc1)c1ccccc1NC(=O)C(F)(F)F | inconclusive [inhibitor, single point] | –
COc1ccc2[nH]c3c(c2c1)CC(C)NC3=O (stereo not given) | inactive | –
N#CC(=C=[N-])c1nc2ccccc2nc1-[n+]1cccc(NC(=O)c2ccccc2)c1 | inconclusive [inhibitor, full curve] | –
O=C(NCc1cccc(Cl)c1)c1cnn2c1NC(c1ccco1)CC2C(F)(F)F (stereo not given) | inactive | –
N#C/C(=C\c1ccc(F)c(Br)c1)C(=O)NC1CC1 | inconclusive [activator, full curve, poor fit] | –
Cc1cc(C)c(NC(=O)CSc2nc(COc3ccccc3)nc3ccccc23)c(C)c1 | active: 15.8 µM | –
CSc1ccccc1-n1nnnc1SCC(=O)NCc1cccs1 | inactive | –
Cc1ccc(-c2nc(CSCC(=O)NCCN3CCN(Cc4ccccc4)CC3)c(C)o2)cc1 | inconclusive [inhibitor, single point] | –
CCC1=C(OC(=O)N(CC)CC)N2C(=O)OC(=NCCc3c[nH]c4ccccc34)[C@]2(Cc2ccccc2)[C@H]2C1=CC[C@H]1C(=O)NC(=O)[C@H]12 | inconclusive [inhibitor, single point] | –
Cc1ccc(NS(=O)(=O)c2cccc3cccnc23)c(Cl)c1 | inactive | –

SMILES | Potency | activity, negative = inhibition
O=C(COc1ccc(S(=O)(=O)N2CCOCC2)cc1)NC1CC1 | inactive | –
Cc1cc(N/N=C\c2ccccc2)nc(-c2ccccc2O)n1 | inconclusive [inhibitor, partial curve, poor fit] | –
Cc1nonc1C(=O)N/N=C/c1ccc(O)cc1 | inconclusive [inhibitor, single point] | –
COc1cc(SC)ccc1C(=O)Nc1c(Cl)cncc1Cl | inconclusive [activator, single point] | –
CC(=O)Oc1ccc2c(=O)c(/C=N/c3cc(=O)[nH]c(=S)[nH]3)coc2c1 | inactive | –
COc1ccc(-c2nc(-c3ccccn3)no2)cc1 | active: 0.316 µM | –
COc1ccc(NC(=O)CN(c2ccccc2F)S(=O)(=O)c2ccc(C)cc2)c(OC)c1 | inactive | –
Cc1ccc(-c2nnc(-c3cccnc3)o2)cc1 | inactive | –
Cc1nnc(N/N=C\c2ccc(-c3ccccc3[N+](=O)[O-])o2)n1N | inconclusive [inhibitor, single point] | –
Cc1cc(CNC(=O)COc2ccccc2F)c2ccccc2n1 | inconclusive [inhibitor, partial curve] | –
O=S(=O)(c1ccccc1F)N1CCC(Oc2ccc(-n3cnnn3)cc2)CC1 | inconclusive [inhibitor, single point] | –
CCCn1c(=O)c2ccccc2n2c(SCC(=O)c3ccc(F)cc3)nnc12 | inactive | –
CCCCCNC(=O)[C@@H]1CSC2c3ccccc3C(=O)N21 (stereo not given in full) | inactive | –
Cc1cc(C)c2[nH]c(C(=O)Nc3ccc(F)cc3Br)cc2c1 | inconclusive [inhibitor, partial curve] | –
Cc1ccc(C(C)C)cc1S(=O)(=O)NCc1ccccn1 | inconclusive [inhibitor, single point] | –
O=C(N/N=C/c1ccc(O)cc1O)/C(=C/c1ccccc1)CCO | inconclusive [inhibitor, single point] | –
CNC(=S)/N=C(/Nc1ccccc1)c1ccccc1 | inconclusive [inhibitor, single point] | –
Cc1cc(C)n2nc(-c3ccc(F)cc3)nc2n1 | inactive | –
COc1ccc(/C=C2/Sc3ccc(C(=O)NCCN4CCCCCC4)cc3NC2=O)cc1 | active: 20 µM | –
COc1cc(OC)c2c(OC)c(-c3ccc4c(c3)OCO4)c(=O)oc2c1 | inconclusive [inhibitor, single point] | –
COc1ccc(-c2[nH]ncc2N=Nc2cc(C)cc(C)c2)cc1 | inconclusive [inhibitor, single point] | –
Cc1nc(-c2ccc(S(=O)(=O)N3CCCN(CCc4ccccc4)CC3)s2)cs1 | inconclusive [inhibitor, single point] | –
O=C(c1ccc(-c2ccccc2)cc1)c1ccc([N+](=O)[O-])cc1 | inactive | –
CCCC(CCC)C(=O)Nc1ccncc1 | inconclusive [inhibitor, single point] | –
COc1nnc(-c2ccc(C)c(S(=O)(=O)NC(C)(C)CO)c2)c2ccccc12 | inconclusive [inhibitor, single point] | –
